Data from ChEMBL document CHEMBL4359827 (ACS Med Chem Lett, 2019).

Legend:
Cytochrome P450 1A2 = target: T1, Cytochrome P450 1A2 (Homo sapiens, UniProt P05177)
T1 sequence (P05177 whole entry): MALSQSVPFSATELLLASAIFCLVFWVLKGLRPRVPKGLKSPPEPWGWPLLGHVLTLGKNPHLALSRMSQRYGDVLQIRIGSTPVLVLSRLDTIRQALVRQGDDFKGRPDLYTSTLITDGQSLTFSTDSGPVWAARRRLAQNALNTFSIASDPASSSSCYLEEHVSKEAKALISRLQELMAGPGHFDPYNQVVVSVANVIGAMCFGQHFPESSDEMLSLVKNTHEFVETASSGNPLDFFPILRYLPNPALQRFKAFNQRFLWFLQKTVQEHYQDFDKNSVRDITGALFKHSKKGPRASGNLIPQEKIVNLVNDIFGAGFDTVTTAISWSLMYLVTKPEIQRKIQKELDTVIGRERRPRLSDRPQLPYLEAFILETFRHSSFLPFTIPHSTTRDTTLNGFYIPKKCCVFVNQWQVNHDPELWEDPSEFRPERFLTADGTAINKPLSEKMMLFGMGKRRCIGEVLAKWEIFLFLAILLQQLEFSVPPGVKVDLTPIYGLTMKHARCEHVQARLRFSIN

Cytochrome P450 2C9 = Cytochrome P450 2C9 (Homo sapiens, UniProt P11712)
Sequence of Cytochrome P450 2C9 (P11712 whole entry): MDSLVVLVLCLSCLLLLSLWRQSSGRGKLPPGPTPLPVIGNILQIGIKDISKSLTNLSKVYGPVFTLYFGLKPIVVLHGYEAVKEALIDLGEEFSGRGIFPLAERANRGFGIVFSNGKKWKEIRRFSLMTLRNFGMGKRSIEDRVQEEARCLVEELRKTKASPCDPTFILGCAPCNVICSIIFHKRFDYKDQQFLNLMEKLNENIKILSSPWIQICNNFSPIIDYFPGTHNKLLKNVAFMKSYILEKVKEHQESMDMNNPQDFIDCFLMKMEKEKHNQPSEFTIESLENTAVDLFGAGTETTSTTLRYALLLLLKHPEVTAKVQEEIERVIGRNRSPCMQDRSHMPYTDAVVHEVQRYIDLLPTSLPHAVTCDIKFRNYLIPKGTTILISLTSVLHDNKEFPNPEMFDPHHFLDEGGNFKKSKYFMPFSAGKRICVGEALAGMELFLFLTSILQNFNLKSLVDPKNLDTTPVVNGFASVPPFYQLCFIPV

Cytochrome P450 2D6 = Cytochrome P450 2D6 (Homo sapiens, UniProt P10635)
Sequence of Cytochrome P450 2D6 (P10635 whole entry): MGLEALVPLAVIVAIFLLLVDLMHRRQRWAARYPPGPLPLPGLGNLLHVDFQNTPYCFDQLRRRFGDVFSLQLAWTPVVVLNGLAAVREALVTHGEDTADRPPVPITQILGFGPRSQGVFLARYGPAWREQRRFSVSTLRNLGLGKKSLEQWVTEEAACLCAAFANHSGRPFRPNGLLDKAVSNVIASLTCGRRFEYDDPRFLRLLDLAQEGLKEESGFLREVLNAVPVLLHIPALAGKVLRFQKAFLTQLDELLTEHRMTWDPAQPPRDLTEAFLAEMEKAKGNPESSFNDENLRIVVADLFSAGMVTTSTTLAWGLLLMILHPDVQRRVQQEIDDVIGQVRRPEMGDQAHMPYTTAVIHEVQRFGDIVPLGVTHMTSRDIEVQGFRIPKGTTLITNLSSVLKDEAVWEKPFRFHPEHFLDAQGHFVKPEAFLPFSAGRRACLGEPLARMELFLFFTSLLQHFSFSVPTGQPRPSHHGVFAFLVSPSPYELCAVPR

Cytochrome P450 2C19 = Cytochrome P450 2C19 (Homo sapiens, UniProt P33261)
Sequence of Cytochrome P450 2C19 (P33261 whole entry): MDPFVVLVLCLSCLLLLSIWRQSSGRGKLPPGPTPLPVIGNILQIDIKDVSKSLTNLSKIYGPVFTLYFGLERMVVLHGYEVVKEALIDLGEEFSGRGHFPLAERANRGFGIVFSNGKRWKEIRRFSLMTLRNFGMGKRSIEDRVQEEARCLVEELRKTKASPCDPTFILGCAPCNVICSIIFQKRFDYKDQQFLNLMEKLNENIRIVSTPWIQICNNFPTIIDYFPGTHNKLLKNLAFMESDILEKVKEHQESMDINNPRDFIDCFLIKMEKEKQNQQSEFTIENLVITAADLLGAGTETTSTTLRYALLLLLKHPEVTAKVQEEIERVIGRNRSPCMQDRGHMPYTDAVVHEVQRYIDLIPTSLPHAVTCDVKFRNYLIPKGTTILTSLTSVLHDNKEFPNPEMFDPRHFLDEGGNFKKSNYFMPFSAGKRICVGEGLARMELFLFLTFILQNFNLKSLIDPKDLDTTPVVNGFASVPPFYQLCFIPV

Compound | IC50 (Cytochrome P450 1A2) | IC50 (Cytochrome P450 2C9) | IC50 (Cytochrome P450 2D6) | IC50 (Cytochrome P450 2C19)
Cc1cc(N2CCC(C3c4c(F)cccc4-c4cncn43)CC2)ccc1-c1cnn(C)c1 (stereo unspecified) | > 10 µM | 0.3 µM | 4.51 µM | 1.57 µM
Cn1cc(-c2ccc(N3CCC(C4c5c(F)cccc5-c5cncn54)CC3)cc2F)cn1 (stereo unspecified) | > 10 µM | 7.4 µM | > 10 µM | 6.81 µM
Cn1cc(-c2ccc(N3CCC(C4c5c(F)cccc5-c5cncn54)CC3)c(F)c2)cn1 (stereo unspecified) | 8.95 µM |  | 9.61 µM | 1.15 µM
